Test results: PubChem BioAssay AID1476 (National Center for Advancing Translational Sciences (NCATS), 2009)
Out of some 200,000 compounds screened, about 4,500 (2.2%) were called active. This list was built around the results that the source calls inconclusive (neither active nor inactive); the mix of calls is not that of the screen. Calls follow the shape of the dose curve; as a rule, active = well fitted inhibition curve with a large enough effect; inconclusive = small, poorly fitted or top-dose-only effect, or effect the other way; inactive = flat fitted curve, though single readings scatter. Potencies of inconclusive entries are doubtful fits and often do not repeat.

These compounds were tested against Cruzipain (Trypanosoma cruzi) (UniProt P25779) (assay: qHTS Assay for Promiscuous and Specific Inhibitors of Cruzain (without detergent)). Details: purified cruzain, Z-FR-AMC fluorescence, no detergent.
Outline: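 Detergent-free condition (0.00005% Triton X-100) in acetate buffer pH 5.5 with DTT. 1.5 nM enzyme and compound were pre-mixed 15 min, then 2 uM Z-FR-AMC substrate added; reaction progress from fluorescence change between first and third reads (60 s).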
Also: nearly all actives have a fitted effect of over 40% in size.
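For max response, negative = inhibition in this document: plate controls were enzyme without inhibitor for no effect and buffer without enzyme for full effect.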
Potency is read from the fitted curve at half-maximal effect; tags tell the direction and shape of the fitted curve.

Sequence of UniProt P25779 (P25779 whole entry, looked up): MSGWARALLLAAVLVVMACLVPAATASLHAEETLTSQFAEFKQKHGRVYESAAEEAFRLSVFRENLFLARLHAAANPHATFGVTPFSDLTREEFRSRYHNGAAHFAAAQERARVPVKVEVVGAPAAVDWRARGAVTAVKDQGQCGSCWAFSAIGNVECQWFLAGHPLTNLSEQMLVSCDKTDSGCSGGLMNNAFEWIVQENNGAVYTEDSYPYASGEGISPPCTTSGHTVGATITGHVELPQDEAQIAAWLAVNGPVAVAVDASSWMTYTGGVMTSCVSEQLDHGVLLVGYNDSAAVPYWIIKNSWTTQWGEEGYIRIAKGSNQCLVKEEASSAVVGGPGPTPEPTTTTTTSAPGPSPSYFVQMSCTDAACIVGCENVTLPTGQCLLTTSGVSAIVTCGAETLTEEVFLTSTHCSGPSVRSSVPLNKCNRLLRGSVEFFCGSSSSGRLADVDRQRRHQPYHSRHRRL

| Structure (SMILES) | max response, negative = inhibition | Potency |
| --- | --- | --- |
| CCOc1ccccc1-n1nnnc1SCC(=O)Nc1cc(C)on1 | inactive: 1.32% | – |
| CC(C)(C)c1ccc(C(=O)Nc2ccc3c(c2)CCCN3C(=O)c2cccs2)cc1 | – | inconclusive: 39.8 µM [inhibitor, single point] |
| CCOc1ccccc1CNc1ccc2cc(S(=O)(=O)N3CCC(C)CC3)ccc2n1 | inactive: -5.6% | – |
| Cc1cccc(Nc2nnc(SCC(=O)c3ccc(Br)s3)s2)c1C | – | inconclusive: 3.16 µM [inhibitor, full curve, poor fit] |
| CC(=O)Nc1c(I)c(C(=O)N[C@H]2[C@@H](O)[C@H](O)[C@H](CO)O[C@@H]2O)c(I)c(N(C)C(C)=O)c1I | inactive: -3.77% | – |
| COc1ccc(-c2nn3c(=O)cc(CN4CCN(C(=O)c5ccc(OC)c(OC)c5)CC4)nc3s2)cc1 | inactive: -11% | – |
| CCOc1ccccc1Nc1sc(C(=O)c2ccccc2)c(N)c1C(=O)Nc1ccccc1 | – | inconclusive: 3.16 µM [inhibitor, single point] |
| CCCCCCN(C(=O)CCCCCN1C(=O)NC(C2CCCCC2)C(C(=O)OCc2ccccc2)=C1C)C(C(=O)NCCCC)c1ccc(OCC(=O)OC)c(C(=O)OC)c1 (stereo not given) | – | inconclusive: 25.1 µM [activator, single point] |
| Cn1cc(/C=N/n2cnc3scc(-c4ccc(Cl)cc4)c3c2=O)c2ccccc21 | – | active: 25.1 µM |
| CC(=O)c1cc(-c2ccccc2)n(CCC(=O)NCc2ccc(C)cc2)c1C | inactive: -0.795% | – |
| COc1cc(/C=C2\CC/C(=C\c3cc(OC)c(O)c(OC)c3)C2=O)cc(OC)c1O | – | inconclusive: 25.1 µM [activator, partial curve] |
| CCc1ccc(NC(=O)Cn2c(=O)n(CCCCC(=O)NCc3ccc4c(c3)OCO4)c(=O)c3ccccc32)cc1 | inactive: -7.62% | – |
| O=C(CSc1nnc(-c2cc3ccccc3cc2O)n1Cc1ccco1)N1CCc2ccccc2C1 | – | inconclusive: 31.6 µM [inhibitor, single point] |
| COc1ccc(OC)c(NC(=S)NCCSc2ccc(C)cc2)c1 | – | inconclusive: 0.398 µM [inhibitor, full curve, poor fit] |
| CCC(c1nnnn1C(C)(C)CC)N(CCCO)Cc1cc2cc(C)cc(C)c2[nH]c1=O (stereo not given) | – | inconclusive: 25.1 µM [activator, partial curve] |
| O=C(Cc1ccc(Cl)cc1)NNC(=O)Nc1cccc2ccccc12 | – | inconclusive: 39.8 µM [inhibitor, single point] |
| N#CC1=C2SCC(O)(c3ccccc3)N2C(=O)CC1c1ccccc1F (stereo not given) | – | inconclusive: 31.6 µM [inhibitor, single point] |
| COC(=O)[C@@]1(Cc2ccccc2)[C@H]2c3cc(C(=O)N4CCCC4)n(Cc4ccc(OC)c(OC)c4)c3C[C@H]2CN1C(=O)c1ccccc1 | – | inconclusive: 31.6 µM [activator, partial curve, poor fit] |
| CCN(CC)S(=O)(=O)c1cccc(NC(=O)COC(=O)CCC(=O)c2ccc(F)cc2)c1 | inactive: 4.38% | – |
| CC(=O)Nc1ccc(NC(=O)C(C)OC(=O)c2ccccc2C(=O)c2ccc(Cl)c([N+](=O)[O-])c2)cc1 (stereo not given) | – | inconclusive: 39.8 µM [inhibitor, single point] |
| CCc1ccc(NC(=O)C(=O)NCC(c2cccnc2)N2CCN(c3ccc(F)cc3)CC2)cc1 (stereo not given) | – | inconclusive: 31.6 µM [activator, single point] |
| CCc1nnc(NC(=O)c2ccc(COc3ccccc3)o2)s1 | – | inconclusive: 31.6 µM [inhibitor, single point] |

| Structure (SMILES) | max response, negative = inhibition | Potency |
| --- | --- | --- |
| CCN(CC)C(=O)CSC1=C(C#N)C(c2ccco2)C(C(=O)OCCOC)=C(C)N1 (stereo not given) | – | inconclusive: 31.6 µM [activator, single point] |
| CC(=O)N1CCc2nc3sc(C(=O)c4ccc(F)cc4)c(N)c3c(C(F)(F)F)c2C1 | – | inconclusive: 39.8 µM [activator, single point] |
| Cc1ccc(OCC(=O)Nc2nnc(S(=O)(=O)N3c4ccccc4CC3C)s2)cc1 (stereo not given) | inactive: 13.3% | – |
| CN(C)CC/C=C1/c2ccccc2Sc2c(O)cc(Cl)cc21 | – | active: 25.1 µM |
| CCc1ccc(NC(=O)CN(c2ccc(C)cc2)S(=O)(=O)c2cccs2)cc1 | inactive: -15.4% | – |
| CNC(=O)C1CCC(Cn2c(=O)c3sccc3n(CC(=O)Nc3ccc(C)c(C)c3)c2=O)CC1 (stereo not given) | – | inconclusive: 39.8 µM [activator, single point] |
| Cc1cc(NS(=O)(=O)c2ccc(NC(=O)C(C)Oc3ccc4c(C)cc(=O)oc4c3)cc2)no1 (stereo not given) | inactive: 2.6% | – |
| CC(C)c1cccc2cc3c(nc12)-c1cccc(=O)n1C3 | – | inconclusive: 15.8 µM [activator, partial curve] |
| COc1ccc(-c2nnc(SCC(=O)N(Cc3ccccc3)C(C)(C)C)o2)cc1OC | – | inconclusive: 31.6 µM [activator, single point] |
| Cc1ccc(C2CC(c3cccs3)=NN2S(=O)(=O)c2ccc(C)cc2)cc1 (stereo not given) | – | inconclusive: 39.8 µM [inhibitor, single point] |
| Cc1nnc(-n2ncc(C#N)c2N)c2nn(-c3cccc(Cl)c3)c(C)c12 | – | inconclusive: 31.6 µM [activator, single point] |
| Cc1cccc(C(C)C)c1NC(=O)C1CCCN1S(=O)(=O)c1cccc2nsnc12 (stereo not given) | inactive: -10.5% | – |
| CCCCCCCCCCCCC/C=C/[C@@H](O)C(CO)NC(C)=O (stereo not given in full) | inactive: 6.07% | – |
| OC(CN=c1sc2ccccc2n1CC(O)COc1ccccc1)COc1ccccc1 (stereo not given) | – | inconclusive: 39.8 µM [activator, single point] |
| C=C(C)C(=O)/C=C/c1ccc(C(F)(F)F)cc1 | inactive: -0.11% | – |
| CCOCCCn1c(SCC(=O)OCC)nc2c(sc3ccccc32)c1=O | inactive: 10.4% | – |
| COCCNC(=O)CSc1nc(-c2cc(OC)c(OC)c(OC)c2)[nH]c1-c1ccc(Cl)cc1 | – | inconclusive: 10 µM [activator, partial curve] |
| Cc1ccc(NC(=O)CN2C(=O)/C(=C\c3cccs3)SC2=S)cc1 | – | active: 5.01 µM |
| CCCCC(=O)NCCc1c(Cc2ccccc2)[nH]c2ccccc12 | inactive: -2.42% | – |
| CCCC(O)c1nc2ccccc2n1Cc1ccccc1OC (stereo not given) | inactive: -4.23% | – |
| COc1cc(NC(=O)CN2c3ccccc3S(=O)(=O)c3ccccc32)cc(OC)c1 | – | inconclusive: 31.6 µM [inhibitor, single point] |
| COc1ccccc1CCNC(=O)c1ccc(-c2nc(CSc3ccc(C)cc3)c(C)o2)cc1 | inactive: -3.69% | – |

| Structure (SMILES) | max response, negative = inhibition | Potency |
| --- | --- | --- |
| COc1ccc(Cn2ccc3nc(C)c(C(=O)Nc4cc(C)cc(C)c4)cc3c2=O)cc1 | – | inconclusive: 25.1 µM [activator, partial curve] |
| O=C(CN1c2ccccc2Sc2ccccc21)NNC(=S)Nc1ccc(Cl)cc1Cl | – | active: 10 µM |
| Cc1cc2c(C(C)C)c(O)c(O)c(C=O)c2c(O)c1-c1c(C)cc2c(C(C)C)c(O)c(O)c(C=O)c2c1O | – | inconclusive: 12.6 µM [activator, full curve, poor fit] |
| CCOC(=O)c1c(NC(=S)Nc2ccc(Cl)cc2)sc(C)c1C | – | active: 3.98 µM |
| CCOc1ccc(-c2ncnn2-c2sc3c(c2C#N)CCCCC3)cc1 | inactive: -12.1% | – |
| CC(C)c1ccc(N2C(=O)CS(=O)(=O)C23C(=O)N(Cc2cccc(F)c2)c2ccccc23)cc1 (stereo not given) | – | active: 2.51 µM |
| CCC1CN(C(=O)NCc2ccc(C)cc2)c2ccccc2O1 (stereo not given) | – | inconclusive: 25.1 µM [activator, partial curve] |
| COC(=O)c1cc2c([nH]c3ccccc32)c(C)n1 | – | inconclusive: 31.6 µM [activator, single point] |
| COC(=O)c1c(N)n(CCCN2CCOCC2)c2nc3ccccc3nc12 | – | inconclusive: 25.1 µM [inhibitor, single point] |
| Cc1ccccc1-c1noc(-c2ccc(Cl)cc2)n1 | – | inconclusive: 39.8 µM [inhibitor, single point] |
| Cc1oc(-c2ccc(C(=O)NCc3ccc(Cl)cc3)cc2)nc1CS(=O)(=O)c1ccccc1 | – | active: 25.1 µM |
| COc1ccc(OC)c(NC(=O)Cn2cc(C(=O)c3ccccc3F)c3ccccc32)c1 | – | inconclusive: 25.1 µM [inhibitor, single point] |
| CC(C)c1ccc2oc(-c3ccc(NC(=O)c4ncn[nH]4)cc3)nc2c1 | – | active: 12.6 µM |
| Cc1ccc(/C=c2\sc3n(c2=O)CN(c2cccc(Br)c2)CN=3)o1 | – | inconclusive: 39.8 µM [inhibitor, single point] |
| O=C(Nc1nc(-c2ccccc2)c(C(=O)c2ccccc2)s1)c1ccc(S(=O)(=O)N2CCCC2)cc1 | – | active: 25.1 µM |
| Cc1nnc(NC(=O)CSc2ncnc3scc(-c4ccccc4)c23)s1 | inactive: -25.6% | – |
| CCc1cccc2c(C(=O)Cn3nnc(-c4ccc(OC)c(OC)c4)n3)c[nH]c12 | – | inconclusive: 20 µM [activator, partial curve] |
| CCOc1ccccc1Nc1nnc(SCc2ccc(C(=O)OC)o2)s1 | inactive: 2.33% | – |
| O=C1/C(=C\c2ccccc2Cl)SC(=S)N1CCC(=O)N1CCCc2ccccc21 | – | inconclusive: 39.8 µM [inhibitor, single point] |
| Cc1cc(C)c(-c2cc(NC(=O)COC(=O)c3ccc(CO)cc3)n(-c3ccccc3)n2)cc1C | inactive: 21.5% | – |
| CCOc1ccc(NC(=O)CN(C)c2ccc(S(=O)(=O)N(C(C)C)C(C)C)cn2)cc1OCC | – | inconclusive: 31.6 µM [activator, single point] |
